This is one part of the list.
Tested on: PF3D7_0420300 AP2 domain 1 (GST-tagged)
Experiment: gcPBM binding intensity (ln(normalized median fluorescence intensity)); higher = stronger DNA binding
Summary of the method: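 Binding intensity values are the highest Masliner-normalised natural-log median intensity among replicate spots of either probe orientation. The binding step lasted 1 h in 1× PBS with 1% milk, 0.2 mg/ml BSA, 0.5% salmon testes DNA and 0.03% Triton X-100, using GST-tagged P. falciparum DNA-binding domains expressed in E. coli on an Agilent 4 × 180k array of primer-extended double-stranded 36-bp intergenic genomic probes plus negative controls. Alexa488 anti-GST antibody and a 488 nm scan detected bound protein.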

Sequence	gcPBM binding intensity (ln)
TTTTATGATTGACACACACACAAAAAAAAAAAAAAA [CACACA_site7860]	9.46
TAAAAAAACGCACTCGTACACACATATTTTCTTTCT [CACACA_site3090]	9.55
TATATTTGGAAAACATGTACATATAACAATATGTAA [XGTACX_site324]	9.11
AATAAAAAAGGAAACAAATTAATATATATATATATA [CACACA_negctrl_site467]	9.15
CGTACATAATTTTAATCACACACAAACAAACACATA [CACACA_site7947]	9.93
AAAAAAAGAAATAATAAAAAATATATATATATATAT [GTGCAC_negctrl_site702]	9
AAGACACAAAAACACACACACATACATACATACATA [CACACA_site454]	9.91
TATGTTGATGATGATAGTACATATGAGTTCAAAAAA [XGTACX_site7712]	9.05
TAAAATTCGAAAAATTGTACTATTTATATATCTGTA [XGTACX_site6478]	9.11
ATCAACATTACATTTAGTACACATATATTTCTATGT [XGTACX_site4436]	9.52
TAGTTAGGCCCTACATGTACATAATATATATTACTT [XGTACX_site1137]	9.47
CTAATTAATATTTGTACACACATATTTAACCTACTA [CACACA_site3191]	9.53
TATATAAGTATAAAATGTACATAAAATTTTATGTTA [XGTACX_site2613]	9.27
ACAAAATGTAAATAAACACACATATTTATATTTATA [CACACA_site6719]	9.31
AATAAAATATTATGTGCATGCTGTTTTATTTATTAA [TGCATGCA_site102]	9.24
TTGGTGGATAAATTTACACACAATAATTTTCGTTCA [CACACA_site467]	9.39
AATTCACCAAAAAAAGTGCATATTCAATATATATTA	9.02
TAAAACAAAACAAAAATAGGATTATATTCCTTTTTT [CACACA_negctrl_site1003]	9.14
ATAATTTCAATATTTAATATCATATATATATATTTT [GTGCAC_negctrl_site713]	9.16
AAATAAAAAAATACCCAACACCATGCCAAATGTGAA [CACACA_negctrl_site411]	9.63
ATATATATATATATATGTACATATGTGTATATAACT [XGTACX_site495]	9.51
TATAGCATATCTCACACACACATAATGAATATTATA [CACACA_site5877]	9.85

Sequence	gcPBM binding intensity (ln)
ATATTAAACAGACACACACACATATATTTATTTATA [CACACA_site7564]	10
TGTATTATATAAAATTGTACATGCGAATTGTATAAC [XGTACX_site902]	9.45
AAAATGAACTCACGAGCACACACACCCATATATATA [CACACA_site8247]	9.75
TATAGCTATGTATTCACACATAATATAAACTTTAAT [CACACA_site5889]	9.13
TAATTTTTTTTAATAACACACATATATATATATATA [CACACA_site813]	9.11
ATAAAATGAAATATATATGTGTATGCTTAACTTGTT [CACACA_negctrl_site431]	9.44
AAAGGATGTAATATAAACATATATATGTATATATAT [TGCATGCA_negctrl_site347]	9.44
ATTGTTTTATATAGAACACACATAAAAATATATATG [CACACA_site1193]	9.36
TAATATTCCTTTTTAACACACATATGAACAAATAAA [CACACA_site153]	9.31
TAAAAATTTACATGTTGTACATATAATTATATAATC [XGTACX_site4577]	9.03
AGGCTGCCATATTATACACACATTTTTAAAAAAATT [CACACA_site3843]	9.21
AAATATTACCATGTGAAAATTTTACTGCAACATGAA [TGCATGCA_negctrl_site609]	9.3
GTTACATACATATACACACACATATATATATATATA [CACACA_site901]	9.84
TAAATAATTCTTTTAGTACACACGAATAAGCAGATA [CACACA_site305]	9.38
TAATTTTTATTCAAGAGTACACAAAAGATAACTAAA [XGTACX_site4060]	9.14
TAAAAAAAATCATTCACACATATATGAAAAAAAAAA [CACACA_site5546]	9.22
TTCTTACACGTTTGCACACTAAAATATATATATATA [CACACA_site434]	9.51
TAGATACCTATAGAAACATGCAATTGAATATATTTC [TGCATGCA_site402]	9.27
AAAAAATGAAAATATTCCAAAATAGAGGGAAATGTA [GTGCAC_negctrl_site572]	9.42
TATGTGATAACACGCACACAAATGTATTTAATTTAT [CACACA_site5435]	9.31
CACAAAAATGTAATCACACATATATATATATATATA [CACACA_site5818]	9.19
TTATATTTATATATTTGTACGTATGTATATAATTCA [XGTACX_site2993]	9.09

Sequence	gcPBM binding intensity (ln)
ATTCTAATAATATATACACACACATATATATTTATA [CACACA_site8629]	9.77
AAAATTAGGAGACATGCATGTAACGATAAATATAAC [TGCATGCA_site148]	9.77
CTTTTTTAAAATATTTAACACACAATTTTAATGCAT [CACACA_site9303]	9.21
TTTTTTTTCTTTTTTTTTTTTTCAAAAGCTTATAAT [CACACA_negctrl_site1526]	8.9
GTGTATTTGGTGCGCACACACATGCAAAAAGAAATA [CACACA_site4768]	9.59
TGTATAATCATATATACACACACATATATATATATA [CACACA_site8674]	9.52
TTATATAAAAAAAAATGTACATATAATTGGTAAATT [XGTACX_site5180]	9.34
TTGAAAATAATATGAAGTACATTATTTTTTTTTAAT [XGTACX_site4499]	8.79
AAAAATATTTAAAATACACACATATATATAATATAT [CACACA_site2006]	9.5
AAAACTTTCCATGTTTGTACATAAAATATAATAATT [XGTACX_site2716]	9.08
ATATTAAAGCCTTTTTGTACATATAAATAAACATAG [XGTACX_site4667]	9.15
CTTGAAAGATTTTATTGTACTCATAAGATACATTTC [XGTACX_site3178]	8.99
TCATACAATATTAAATGTACATATATATATATATAT [XGTACX_site8828]	9.2
AACTCTTAAAAATAAACATGCAAATATTTACCTTCT [TGCATGCA_site986]	9.24
TATATATTATATATATGTACATAATTCCATGTTTAG [XGTACX_site3943]	9.18
ATTTTTTTTTTTTTTTTTCATTTTTTTTTTTTTTTT [CACACA_negctrl_site1204]	9.23
AACCATAACTCATATGCACACATAAATATTACATAT [CACACA_site9273]	9.61
TGGAGGATAGTTCACAGTACCCAGTAACTCTACGGA [XGTACX_site4930]	8.99
AAAGTATAAATAAATACACACATATATATATATATA [CACACA_site2892]	9.4
TACATTCGGAGTAAAAAAAAATTTATACAATTACTT [XGTACX_negctrl_site29]	8.92
GTAAAAAAAAAAAAAAGTACATTATACATATATTTA [XGTACX_site5447]	8.9
TGTGTATATAAATAATGTACATATATATTTTTTTAT [XGTACX_site7341]	9.17

Sequence	gcPBM binding intensity (ln)
AAAAATGTATGTATGGTGCAGTATTCATATCATTTT [GTGCAC_site9458]	9.34
AAAATGAACAAACACACACACATATATATATATATA [CACACA_site2403]	9.82
TTATTGTGTAAGATGATTTTCTTCGTCACTTTGAAA [CACACA_negctrl_site1814]	8.82
TCTTGAAAAAGAATCAATCGGTCGACAAAAAAAAAA [CACACA_negctrl_site1099]	9.22
TTTTTTAATATTTATTAATTAAACTTTGTTTTTGTT [XGTACX_negctrl_site454]	9.16
ATATTCTTGTTTAATACACACTGTAGTATTATAGAT [CACACA_site6341]	9.47
AAAAAACACTTAAGGTGTACCTTTTAATATAAGTAT [XGTACX_site2397]	9.14
GACAAATAATAAAAGGTGCATTATACTTAACAAAAA [GTGCAC_site9624]	9.27
ATATAAATATTTATTAGTACACATTAGTGTAGTTTT [XGTACX_site4493]	9.16
CTATATTATTTTTCTTGTACGTAGGAAATATAGCTA [XGTACX_site6176]	8.85
GGTGGCTAAATTACAACACACGACGGAATATTATAT [CACACA_site4114]	9.55
AATATATGGTTTCATTATATTAAATTCAATTTAATG [CACACA_negctrl_site675]	9.12
TTTTATTCATTGAGCACACAAAATAAATTATCAAAA [CACACA_site3279]	9.02
AGTATATAATAATTTACACACAAAAAAATATCAGGA [CACACA_site3517]	9.8
ACCGTGGGAAGACACACACACACACCCACATATATA [CACACA_site333]	10.2
AATAAATATATGTACACACACAAATATATACATATC [CACACA_site1903]	9.82
TTTTATAATGTTGTAGTGCAAAATACGTATATTTAT [GTGCAC_site9826]	9.22
AGATATAAGAAAAGCACACACACACCCAAAAAAAAA [CACACA_site2826]	10.2
AAAATATATATTAACACACACACAAAAAAAAAAAAA [CACACA_site1325]	10.1
GAAAATTATATGTGTTGTACACTTGCAACAACTATT [XGTACX_site3637]	9.13
CTATTATCGGTTCCTACACACAAATATAGATGTCTA [CACACA_site7651]	9.54
TATATAATACAAAAGGGTACATTAACATATTATATA [XGTACX_site3196]	9.33

Reference: the supplement of paper PMC11417369
